# Test results taken from PubChem BioAssay AID504845 (National Center for Advancing Translational Sciences (NCATS), 2011).
# Out of some 390,000 compounds screened, about 150 (0.038%) were called active. The shares of active, inactive and inconclusive entries below differ from those in the screen. Calls follow the shape of the dose curve; as a rule, active = well fitted inhibition curve with a large enough effect; inconclusive = small, poorly fitted or top-dose-only effect; inactive = no such curve, though single readings can be large or run the other way. Potencies of inconclusive entries are doubtful fits and often do not repeat.
# Target: Regulator of G-protein signaling 4 (Homo sapiens) (UniProt P49798)
# Chain of UniProt P49798 (P49798 whole entry, looked up): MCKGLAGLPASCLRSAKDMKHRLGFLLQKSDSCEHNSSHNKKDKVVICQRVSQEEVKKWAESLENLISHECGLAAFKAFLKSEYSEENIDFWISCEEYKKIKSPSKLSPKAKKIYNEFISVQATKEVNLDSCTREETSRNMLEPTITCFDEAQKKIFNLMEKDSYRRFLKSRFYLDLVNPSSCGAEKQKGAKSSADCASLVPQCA
# Assay: Inhibitors of Regulator of G Protein Signaling (RGS) 4: qHTS; also: nearly all actives have a fitted effect of over 75% in size
# Conditions: Transcreener GDP fluorescence polarization, RGS4-accelerated GTP hydrolysis; series mostly up to 114 µM; activity change, negative = inhibition: at the top concentration
# In short: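 MLSMR compounds (23 nl, pin-transferred) preincubated 10 min at room temperature with a 500nM (2x) first reagent, then RGS4 at 900nM (2x) plus Transcreener GDP mix added; fluorescence polarization (620/688 nm) read before and after 90 min at 30 °C.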
# % is scaled to controls: 0 for no effect and ±100 for the full control effect; potency is read from the fitted curve at half-maximal effect; tags tell the direction and shape of the fitted curve.
SMILES,"activity change, negative = inhibition",Potency
O=[N+]([O-])c1ccccc1N/N=C/c1c[nH]c2ccccc12,inactive: -16.6%,–
C/C(=N\NS(=O)(=O)c1ccc(Br)cc1)c1ccncc1,–,"inconclusive: 70.8 µM [inhibitor, partial curve, poor fit]"
CN(C)CCN(C(=O)c1ccc2ccccc2c1)c1nc2cc3c(cc2s1)OCCO3,inactive: -5.86%,–
OCCNCCNCc1ccccc1OCc1ccccc1,inactive: -0.49%,–
CCCN(CC(=O)Nc1ccccc1C)C(=O)c1oc2ccc(OCC)cc2c1C,inactive: -2.3%,–
C/C(=N\NC(N)=S)C1=CCC2C3CC[C@H]4CC(O)CC[C@]4(C)C3CC[C@]12C (some centres undefined),–,"inconclusive: 50.1 µM [inhibitor, partial curve, poor fit]"
CCc1ccc(CNCc2ccc(OCC(O)CN(C)Cc3ccccc3)cc2)nc1 (centres undefined),inactive: 26.6% [at 11.4 µM],–
CC(NC(=O)CN1C(=O)NC2(CCCCCC2)C1=O)c1ccccc1 (centres undefined),–,"inconclusive: 89.1 µM [inhibitor, single point]"
C=C(C)C(=O)Nc1cccc(C2=NOC3(C2)C[C@H](C(N)=O)N(C(=O)CC)C3)c1 (some centres undefined),–,"inconclusive: 20 µM [inhibitor, full curve, poor fit]"
COC(=O)c1ccccc1NC(=S)NC(NC(=O)COc1ccccc1)C(Cl)(Cl)Cl (centres undefined),–,"inconclusive: 44.7 µM [inhibitor, partial curve, poor fit]"
Cc1nc(-c2ccccn2)sc1C(=O)Nc1ccc(F)cc1,inactive: 36.7%,–
COc1cccc(NC(=O)CSc2nnc3c(n2)[nH]c2ccc(C)cc23)c1,–,"inconclusive: 14.1 µM [inhibitor, full curve, poor fit]"
COc1cccc(OCc2cc(C(=O)NCc3ccccn3)no2)c1,inactive: 38.8%,–
C(COC1CC2CC1C1C2CC2OC21)OC1CC2CC1C1C2CC2OC21 (centres undefined),–,"inconclusive: 100 µM [inhibitor, single point]"
CCCOc1cccc(C(=O)Nc2ccc(CN3CCOCC3)cc2)c1,inactive: -25.9%,–
O=[N+]([O-])c1ccc(N2CCN(c3ccc(F)cc3)CC2)nc1,–,"inconclusive: 112 µM [inhibitor, partial curve, poor fit]"
CCOC(=O)N1CCN(C(=O)CCN2C(=O)/C(=C\c3cccc(OC)c3)SC2=S)CC1,inactive: -28.3%,–
Cn1c(=O)n(Cc2ccccc2Cl)c(=O)c2c1[nH]c(=S)n2C,–,"inconclusive: 79.4 µM [inhibitor, partial curve, poor fit]"
CC1=NN(c2nc(-c3ccc(C#N)cc3)cs2)C(=O)C1,–,"inconclusive: 31.6 µM [inhibitor, full curve, poor fit]"
CCc1ccc(C(=O)CSc2n[nH]c(C)n2)cc1,–,"inconclusive: 50.1 µM [inhibitor, partial curve, poor fit]"
COc1ccc(Nc2nc(Nc3ccc(OC)cc3)nc(-n3[nH]c(=O)c(C)c3C)n2)cc1,–,"inconclusive: 79.4 µM [inhibitor, partial curve, poor fit]"
COC(=O)C1=C(C(=O)OC)SC(=C2C(=S)C(C)(C)N(C(=O)CC(C)C)c3ccccc32)S1,–,"inconclusive: 100 µM [inhibitor, partial curve, poor fit]"
O=c1oc2c(-c3ccc([N+](=O)[O-])cc3)cc(O)cc2s1,–,"inconclusive: 79.4 µM [inhibitor, partial curve, poor fit]"

SMILES,"activity change, negative = inhibition",Potency
CN(C)c1cc[n+](CC(=O)Nc2ccccc2C(F)(F)F)cc1,inactive: -8.88%,–
O=C(NC(=S)Nc1cc([N+](=O)[O-])ccc1Cl)c1ccccc1,–,"inconclusive: 89.1 µM [inhibitor, single point]"
CC(C)C(=O)Nc1ccc(NC(=S)NC(=O)c2ccccc2F)cc1,–,"inconclusive: 79.4 µM [inhibitor, partial curve, poor fit]"
Nc1cccc(-c2nnc3n2CCCCC3)c1,–,"inconclusive: 79.4 µM [inhibitor, partial curve, poor fit]"
OC(CN1CCN(c2cccc(Cl)c2)CC1)C(c1ccccc1)c1ccccc1 (centres undefined),–,inactive
CCCCC(c1nnnn1CS(=O)(=O)c1ccc(C)cc1)N1CCN(C)CC1 (centres undefined),–,"inconclusive: 79.4 µM [inhibitor, partial curve, poor fit]"
COc1ccc(CC2=CC(=O)c3ccccc3C2=O)cc1,–,"inconclusive: 50.1 µM [inhibitor, partial curve, poor fit]"
Cc1ccnc(NC(c2ccsc2)c2ccc3ccc(C)nc3c2O)c1 (centres undefined),–,"inconclusive: 79.4 µM [inhibitor, partial curve, poor fit]"
COc1cc2[nH]c(=O)n3nc(-c4ccccc4)nc3c2cc1OC,inactive: -13.9%,–
COc1cc(OC)c(C2CC(=O)N3CN(C)CSC3=C2C#N)cc1OC (centres undefined),–,"inconclusive: 17.8 µM [inhibitor, full curve, poor fit]"
O=C(Nc1cccc(Cl)c1)N1CCCC1,inactive: -106% [at 56.9 µM],–
CN(C)c1ccc(/C=N/Nc2cccc(C(=O)O)c2)cc1,–,"inconclusive: 89.1 µM [inhibitor, partial curve, poor fit]"
Cn1c(N)c(C(=O)c2ccccc2)c(=O)n(C)c1=O,–,"inconclusive: 100 µM [inhibitor, single point]"
N/C(=N\OC(=O)CCCOc1ccccc1)c1ccc(Br)cc1,–,"inconclusive: 89.1 µM [inhibitor, single point]"
O=C(CCN1CCCC1)Nc1ccc(Br)cc1,inactive: -1.55%,–
CCn1c(Oc2ccccc2)nc2c1c(=O)n(C)c(=O)n2C,–,"inconclusive: 89.1 µM [inhibitor, partial curve, poor fit]"
CCNS(=O)(=O)c1ccc(NC(=O)Cn2cc([N+](=O)[O-])cn2)cc1,–,"inconclusive: 89.1 µM [inhibitor, single point]"
CCOc1cccc(C(=O)NC(=S)Nc2cccnc2)c1,inactive: -52.3%,–
C=CCN1C(=O)/C(=N/n2cnnc2)c2ccccc21,–,"inconclusive: 79.4 µM [inhibitor, partial curve, poor fit]"
Cc1ccc(NC(=O)c2ccc(Nc3c([N+](=O)[O-])cc([N+](=O)[O-])cc3[N+](=O)[O-])cc2)cc1,–,"inconclusive: 44.7 µM [inhibitor, partial curve, poor fit]"
CCCCCCc1c(C)c2ccc(OCC(=O)N3CCC[C@H]3C(=O)O)c(C)c2oc1=O,–,"inconclusive: 100 µM [inhibitor, single point]"
CS(=O)(=O)N(CC(=O)N1CCCCCC1)c1cccc(Br)c1,inactive: 0.11%,–
COc1ccc(-c2c(-c3ccc(O)cc3O)n[nH]c2C(F)(F)F)cc1,inactive: 2.57% [at 56.9 µM],–

SMILES,"activity change, negative = inhibition",Potency
CC(C)OCCCNC(=S)Nc1ccc(S(N)(=O)=O)cc1,–,"inconclusive: 44.7 µM [inhibitor, partial curve, poor fit]"
c1cncc(-c2nc(NCc3ccc4c(c3)OCO4)c3ccccc3n2)c1,–,"inconclusive: 100 µM [inhibitor, partial curve, poor fit]"
COc1ccc(OC)c(NC(=O)c2c3c(nc4ccccc24)CCC3)c1,inactive: 0.102%,–
CC1(C)Cc2nc3sc4c(SCC(=O)NCc5ccco5)ncnc4c3cc2CO1,inactive: -49.5%,–
CCn1c(SC(C)C)nnc1-c1cc(-c2ccccc2)sc1N,–,"inconclusive: 50.1 µM [inhibitor, partial curve, poor fit]"
O=C(CCC(=O)Nc1ccccc1)NNC(=O)CCc1ccccc1,inactive: 5.66%,–
CCCCn1c2c(c(=N)c3c1CCC3)CCC2,inactive: 11.2%,–
O=C1C=CC(=O)N1c1ccc2c(c1)C(NC(=O)C(F)(F)F)c1ccccc1-2 (centres undefined),–,"inconclusive: 50.1 µM [inhibitor, partial curve, poor fit]"
CN(c1ccccc1)c1ccc(/C=C/[N+](=O)[O-])cc1,–,"inconclusive: 17.8 µM [inhibitor, full curve, poor fit]"
CC1CCN(c2ccc(S(=O)(=O)N3CCC(C)CC3)cc2N)CC1,–,"inconclusive: 89.1 µM [inhibitor, single point]"
COc1cc(/C=N/NC(=O)c2cccnc2)ccc1OCC(=O)Nc1ccc(C)cc1,–,"inconclusive: 17.8 µM [inhibitor, full curve, poor fit]"
CC(C)(C)C(=O)CSc1ncccn1,–,"inconclusive: 79.4 µM [inhibitor, single point]"
CCCCNc1c(C(=O)OCC)c(C)nc2c1cnn2CC,–,"inconclusive: 0.168 µM [inhibitor, full curve, poor fit]"
CC(=O)NC1(c2nnnn2CCOC(=O)Nc2ccc(Cl)cc2)CCCCC1,–,"inconclusive: 89.1 µM [inhibitor, single point]"
CC(=O)Oc1ccc2c(c1)Oc1cc(OC(C)=O)ccc1C21OC(=O)c2ccccc21,inactive: -30.5%,–
O=C(NC(=S)Nc1cccc2c(O)cccc12)c1ccco1,–,"inconclusive: 56.2 µM [inhibitor, partial curve, poor fit]"
Cc1cc(Br)cc2c1N(Cc1ccccc1OC(C)C)C(=O)C2=O,–,"inconclusive: 20 µM [inhibitor, full curve, poor fit]"
CCN(CC)c1ccc(C=Nc2ccc(N(C)C)cc2)c(O)c1,–,"inconclusive: 89.1 µM [inhibitor, partial curve, poor fit]"
O=C1/C(=C\c2cc(Br)cc(Br)c2O)SC(=S)N1Cc1ccccc1,–,"inconclusive: 17.8 µM [inhibitor, full curve, poor fit]"
Cc1ccc(OCC(=O)N(C)CC(=O)NCc2ccco2)c(Br)c1,inactive: -28.5%,–
CCOC(=O)c1ccc(NC(=O)N(CC)CC)cc1,inactive: -13.1%,–
Nc1nc(Sc2ccc([N+](=O)[O-])c3nonc23)c2[nH]cnc2n1,inactive: -120%,–
CCOCCc1nn2c(=O)cc(COC(=O)c3ccc(NC(=O)C(C)(C)C)cc3)nc2s1,inactive: 16.3%,–
